The list shows a part of the results.

Cytotoxicity call and growth inhibition call data for 27 compounds are collected here from the antibiotic and cytotoxicity screens of Wong et al. (2023).

One assay concerns HSkMC. As to the kind of experiment: cytotoxicity call (relative viability < 0.9). The conditions noted are these: 10 µM.
In the next assay the test system is HepG2. As to the kind of experiment: cytotoxicity call (relative viability < 0.9). The conditions noted are these: 10 µM.
In the next assay the test system is S. aureus RN4220. Briefly: growth inhibition call (relative growth <= 0.2). The conditions noted are these: 50 µM.

On to `C[C@H](NC(=O)N(C)C[C@@H]1OCc2ccccc2-c2c(n(C)c3ccccc23)C(=O)N([C@H](C)CO)C[C@H]1C)c1ccccc1`, for which the cytotoxicity call with HSkMC and with HepG2 was “inactive” throughout. Also, the growth inhibition call in the assay with S. aureus RN4220 is “inactive”.

Consider `C[C@H](CO)N1C[C@H](C)[C@H](CN(C)S(=O)(=O)c2ccccc2)Oc2c(NC(=O)C3CCOCC3)cccc2C1=O`, for which the cytotoxicity call with HSkMC and in the assay with HepG2 was “inactive” in each case. Moreover, in the assay with S. aureus RN4220, the growth inhibition call was “inactive”.

Take `O=C(C[C@@H]1C[C@@H]2c3cc(NS(=O)(=O)c4ccccc4)ccc3O[C@@H]2[C@H](CO)O1)NCC(F)(F)F`: the cytotoxicity call in the assay on HSkMC and in the assay with HepG2 was “inactive” throughout. Besides, in the assay on S. aureus RN4220, the growth inhibition call was “inactive”.

Turning to `Cc1noc(C)c1NC(=O)Nc1ccc2c(c1)C(=O)N([C@H](C)CO)C[C@@H](C)[C@H](CN(C)Cc1ccccc1)OCCCC[C@@H](C)O2`, the cytotoxicity call with HSkMC and in the assay with HepG2 was “inactive” throughout. Besides, the growth inhibition call in the assay with S. aureus RN4220 is “inactive”.

On to `O=C1c2ccncc2C(=O)N1CO`, for which the cytotoxicity call in the assay on HSkMC and in the assay on HepG2 was “inactive” in each case. The growth inhibition call with S. aureus RN4220 is “inactive”.

Take `CNC[C@H]1Oc2ccc(NS(=O)(=O)c3cn(C)cn3)cc2C(=O)N([C@@H](C)CO)C[C@@H]1C`: the cytotoxicity call in the assay with HSkMC and with HepG2 was “inactive” in each case. In addition, in the assay with S. aureus RN4220, the growth inhibition call was “inactive”.

As for `Cc1ccc(S(=O)(=O)NCC[C@H]2CC[C@@H](NS(=O)(=O)c3ccccc3Cl)[C@H](CO)O2)cc1`, the cytotoxicity call in the assay on HSkMC and in the assay with HepG2 was “inactive” in each case. Further, the growth inhibition call with S. aureus RN4220 is “inactive”.

On to `O=c1c2cccnc2ccn1C[C@H]1COCCO1`, for which the cytotoxicity call with HSkMC and in the assay with HepG2 was “inactive” in each case. The growth inhibition call in the assay on S. aureus RN4220 is “inactive”.

As to `COc1ccc(NC(=O)Nc2ccc3c(c2)CC(=O)N([C@@H](C)CO)C[C@@H](C)[C@@H](CN(C)C(=O)Nc2ccc(C(F)(F)F)cc2)O3)cc1`, the cytotoxicity call with HSkMC and in the assay on HepG2 was “inactive” each time. In addition, the growth inhibition call with S. aureus RN4220 was “inactive”.

Take `C[C@@H]1CN([C@H](C)CO)C(=O)Cc2cc(NC(=O)Nc3cccc4ccccc34)ccc2O[C@@H]1CN(C)Cc1ccccc1`: in the assay on HSkMC, the cytotoxicity call was “inactive”. Moreover, the cytotoxicity call with HepG2 was “active”. Further, the growth inhibition call in the assay on S. aureus RN4220 was “inactive”.

Consider `C[C@H](CO)N1C[C@H](C)[C@H](CN(C)C(=O)c2ccccc2)OCCCC[C@H](C)Oc2ccc(NC(=O)CCC(F)(F)F)cc2C1=O`, for which the cytotoxicity call in the assay with HSkMC and with HepG2 was “inactive” in each case. Besides, the growth inhibition call in the assay with S. aureus RN4220 is “inactive”.

Consider `COc1ccc(S(=O)(=O)Nc2ccc3c(c2)CC(=O)N([C@H](C)CO)C[C@H](C)[C@H](CN(C)C)O3)cc1`, for which the cytotoxicity call in the assay on HSkMC and in the assay on HepG2 was “inactive” each time. For the same compound, the growth inhibition call in the assay on S. aureus RN4220 was “inactive”.

As for `C[C@@H]1CN([C@@H](C)CO)C(=O)c2cccc(NC(=O)c3nc4ccccc4s3)c2O[C@@H]1CN(C)CC1CCCCC1`, in the assay on HSkMC, the cytotoxicity call is “inactive”. For the same compound, the cytotoxicity call with HepG2 was “active”. Also, in the assay with S. aureus RN4220, the growth inhibition call is “inactive”.

As to `COCCOC(=O)N1C(=O)[C@@]2(c3cc(C#CC4(O)CCCCCC4)ccc31)[C@H](C(=O)NC[C@H](O)c1ccccc1)[C@H]1C(=O)O[C@H](c3ccccc3)[C@H](c3ccccc3)N1[C@@H]2c1ccc(OCCO)cc1`, the cytotoxicity call in the assay on HSkMC and in the assay with HepG2 was “inactive” throughout. In the assay with S. aureus RN4220, the growth inhibition call is “inactive”.

As for `C[C@@H]1CCCCO[C@@H](CN(C)CC2CC2)[C@@H](C)CN([C@H](C)CO)C(=O)c2cc(NC(=O)Nc3ccc(F)cc3)ccc2O1`, the cytotoxicity call in the assay with HSkMC and in the assay on HepG2 was “inactive” each time. Moreover, in the assay on S. aureus RN4220, the growth inhibition call is “inactive”.

Consider `CC(C)NC(=O)N[C@@H]1C=C[C@@H](CC(=O)O)O[C@@H]1CO`, for which the cytotoxicity call with HSkMC and in the assay on HepG2 was “inactive” each time. Moreover, in the assay on S. aureus RN4220, the growth inhibition call was “inactive”.

As for `CC1=NN2NC(C(F)(F)F)=NN2C(=O)C1`, the cytotoxicity call with HSkMC and in the assay with HepG2 was “inactive” each time. In addition, the growth inhibition call in the assay on S. aureus RN4220 was “inactive”.

For `C[C@@H]1CN([C@@H](C)CO)C(=O)Cc2cc(NC(=O)Cc3cn(C)c4ccccc34)ccc2O[C@@H]1CN(C)Cc1ccc(C(F)(F)F)cc1`, the cytotoxicity call in the assay with HSkMC was “inactive”. The cytotoxicity call with HepG2 was “active”. Moreover, the growth inhibition call in the assay on S. aureus RN4220 was “inactive”.

For `CCS(=O)(=O)N1C[C@]2(CCN(CC2)Cc2cccc(c2)OC)c2c(n(c3cc(ccc23)OC)C)[C@@H]1CO`, the cytotoxicity call in the assay on HSkMC and with HepG2 was “inactive” in each case. The growth inhibition call with S. aureus RN4220 was “inactive”.

Consider `C[C@H]1CN([C@@H](C)CO)C(=O)c2cc(NC(=O)Nc3ccc4c(c3)OCO4)ccc2O[C@H]1CN(C)C(=O)Nc1cccc2ccccc12`, for which the cytotoxicity call in the assay with HSkMC and with HepG2 was “inactive” throughout. In addition, in the assay on S. aureus RN4220, the growth inhibition call was “inactive”.

For the compound `CC(C)n1nccc1NC(=O)CN`, the cytotoxicity call in the assay with HSkMC and in the assay with HepG2 was “inactive” throughout. In the assay with S. aureus RN4220, the growth inhibition call is “inactive”.

Consider `C[C@H](CO)N1C[C@H](C)[C@H](CN(C)C(=O)Cc2cccnc2)Oc2ncc(C#Cc3ccccc3F)cc2C1=O`, for which the cytotoxicity call in the assay on HSkMC and in the assay on HepG2 was “inactive” each time. Further, the growth inhibition call with S. aureus RN4220 was “inactive”.

On to `C[C@@H]1CN([C@H](C)CO)C(=O)c2cccc(NC(=O)c3cnccn3)c2O[C@@H]1CN(C)Cc1ccc2c(c1)OCO2`, for which the cytotoxicity call in the assay with HSkMC and in the assay with HepG2 was “inactive” in each case. Moreover, in the assay with S. aureus RN4220, the growth inhibition call was “inactive”.

For the compound `Cc1ccc(S(=O)(=O)N(C)C[C@@H]2Oc3ccc(NC(=O)Nc4ccc(C(F)(F)F)cc4)cc3CC(=O)N([C@H](C)CO)C[C@@H]2C)cc1`, the cytotoxicity call in the assay on HSkMC and with HepG2 was “active” each time. Also, the growth inhibition call in the assay on S. aureus RN4220 is “inactive”.

Turning to `COc1ccccc1S(=O)(=O)N1C[C@H](O)COC[C@@H]2O[C@@H](CC(=O)O)CC[C@H]21`, the cytotoxicity call in the assay with HSkMC and with HepG2 was “inactive” each time. Also, the growth inhibition call in the assay with S. aureus RN4220 is “inactive”.

Consider `C[C@@H]1CN([C@@H](C)CO)C(=O)c2cc(NC(=O)Nc3cccc4ccccc34)ccc2O[C@@H]1CN(C)S(=O)(=O)c1ccccc1`, for which the cytotoxicity call in the assay on HSkMC (human skeletal muscle cells) and in the assay on HepG2 was “inactive” in each case. For the same compound, in the assay with S. aureus RN4220, the growth inhibition call is “inactive”.

`COc1cccc(C#Cc2ccc3c(c2)O[C@@H](CN(C)C(C)=O)[C@@H](C)CN([C@@H](C)CO)S3(=O)=O)c1`: the cytotoxicity call in the assay with HSkMC was “inactive”. Also, the cytotoxicity call in the assay on HepG2 is “active”. Further, the growth inhibition call with S. aureus RN4220 was “inactive”.
